Hit rate of the full screen: of about 310,000 compounds, about 14,000 (4.5%) showed an effect of 50% or more. Effects have a minus sign here. The list shows a part of the results.
target: human ether-à-go-go-related gene (hERG) potassium channel (human, UniProt Q12809); test: primary screen, population patch clamp on CHO cells stably expressing hERG
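Further: peak tail current of the secondary pulse compared with the same well before compound.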

human ether-à-go-go-related gene (hERG) potassium channel, sequence (Q12809 whole entry, looked up): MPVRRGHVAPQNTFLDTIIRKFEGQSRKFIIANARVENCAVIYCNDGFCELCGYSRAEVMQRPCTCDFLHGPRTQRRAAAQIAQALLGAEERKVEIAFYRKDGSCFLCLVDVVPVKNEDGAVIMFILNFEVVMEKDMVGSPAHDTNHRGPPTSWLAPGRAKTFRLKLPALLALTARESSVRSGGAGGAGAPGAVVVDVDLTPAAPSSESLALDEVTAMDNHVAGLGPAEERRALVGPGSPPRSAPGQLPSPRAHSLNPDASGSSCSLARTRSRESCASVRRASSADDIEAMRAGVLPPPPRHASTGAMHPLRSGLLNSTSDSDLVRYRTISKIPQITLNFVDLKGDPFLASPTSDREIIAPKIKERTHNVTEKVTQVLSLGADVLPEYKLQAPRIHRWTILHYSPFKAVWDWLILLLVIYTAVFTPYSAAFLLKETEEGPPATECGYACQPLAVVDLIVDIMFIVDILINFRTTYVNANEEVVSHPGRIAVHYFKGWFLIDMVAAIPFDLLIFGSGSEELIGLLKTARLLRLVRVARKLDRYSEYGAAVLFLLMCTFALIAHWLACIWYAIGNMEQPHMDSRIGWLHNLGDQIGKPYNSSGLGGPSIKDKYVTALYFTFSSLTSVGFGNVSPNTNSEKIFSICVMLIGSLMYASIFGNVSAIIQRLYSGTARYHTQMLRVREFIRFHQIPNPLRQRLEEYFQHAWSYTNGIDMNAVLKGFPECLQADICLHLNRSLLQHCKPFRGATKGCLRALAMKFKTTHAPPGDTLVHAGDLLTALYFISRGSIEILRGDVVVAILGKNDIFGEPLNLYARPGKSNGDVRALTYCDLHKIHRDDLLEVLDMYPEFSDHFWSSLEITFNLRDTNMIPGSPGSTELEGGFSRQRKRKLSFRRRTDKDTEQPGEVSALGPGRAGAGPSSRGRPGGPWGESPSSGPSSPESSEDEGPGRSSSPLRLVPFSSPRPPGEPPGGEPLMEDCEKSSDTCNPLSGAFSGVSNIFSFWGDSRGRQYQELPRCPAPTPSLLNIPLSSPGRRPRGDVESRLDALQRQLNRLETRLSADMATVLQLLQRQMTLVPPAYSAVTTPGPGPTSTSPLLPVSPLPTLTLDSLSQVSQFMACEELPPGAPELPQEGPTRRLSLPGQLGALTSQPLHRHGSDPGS

SMILES | hERG current change (%, negative = inhibition) at 10uM [%]
CCc1ccc(S(=O)(=O)Nc2cccc(C3OCCCO3)c2)cc1 | 12.6
O=C(c1noc2c1CSc1ccccc1-2)N1CCN(c2ccc(Cl)cc2)CC1 | 11.8
CCN(CC)S(=O)(=O)c1cc(NS(=O)(=O)c2cccc(C(=O)O)c2)ccc1C | 16.4
CCCCOc1ccc(CN(C)c2ncnc(N)n2)cc1 | 4.92
COc1cc2c(cc1OC)C(C(=O)N1CCN(c3ccccn3)CC1)C(c1cccs1)N(C)C2=O (stereo not shown) | -38
CCS(=O)(=O)c1ccc(O)c(NC(=O)Nc2cccc3ccccc23)c1 | -29.1
CNC(=O)COc1ccc(Cl)c2cccnc12 | -7.98
CC(C)(C)C(=O)Nc1cc2c3c(c1)CCC(=O)N3CCC2 | 21.5
Cc1cccc(NC(=O)CNC(=O)CN2C(=O)NC3(CCCc4ccccc43)C2=O)c1C (stereo not shown) | -12.5
Cc1ccc([N+](=O)[O-])cc1S(=O)(=O)n1ccnc1C | 1.89
Cc1ccc(NC(=O)CN(C)CC(=O)N(C)Cc2ccccc2)cc1 | -19.5
Cn1nc(-c2ccccc2)cc1NC(=O)Nc1ccccc1F | 22.4
CC1CN(c2cc(=O)n(-c3cccc(Br)c3)c(=O)[nH]2)CC(C)O1 (stereo not shown) | -13.8
Cc1ccc(S(=O)(=O)N[C@@H](Cc2ccccc2)C(=O)CCl)cc1 | -33.3
COc1ccc(Cl)cc1NC(=O)COC(=O)c1c(-c2ccccc2)noc1C | -2.53
COc1ccc(C(=O)N/C(=C\c2ccccc2)C(=O)Nc2ccc(C(=O)O)cc2)cc1 | 9.63
Nc1nc(SCC(=O)Nc2ccc([N+](=O)[O-])cc2)n[nH]1 | -6.19
CCOC(=O)c1nn(-c2ccc(C)cc2)c(=O)cc1OCC(=O)N1CCN(c2ccccc2)CC1 | -51.9
N#Cc1ccc(CN(c2ccncc2)S(=O)(=O)c2ccccc2)cc1 | -2.11
Cc1noc(C)c1C(=O)OCC(=O)Nc1cc(S(=O)(=O)N2CCOCC2)ccc1Cl | -25
O=C(O)C1C2C=CC(C2)C1C(=O)Nc1cccc(C(F)(F)F)c1 (stereo not shown) | 8.95
COc1ccccc1CNC(=O)C1CCCN(S(=O)(=O)c2c(C)[nH]c(=O)[nH]c2=O)C1 (stereo not shown) | 2.87
O=[N+]([O-])c1ccc(N2CCN(Cc3ccncc3)CC2)cc1 | -64.8
CCN(CCCNC(=O)CC1Oc2ccc(C)cc2NC1=O)Cc1ccccc1 (stereo not shown) | -61.5
O=C(CSc1ccccc1)Nc1ccc(NC(=O)c2ccco2)cc1 | -1.23
CCOC(=O)c1cc(-c2cccs2)nc2c1c(C)nn2-c1ccccn1 | 17.2
CCN1CCN(c2sc(S(C)(=O)=O)nc2S(=O)(=O)c2ccc(C)cc2)CC1 | -10.9
COc1ccccc1-n1cc(C(=O)NCC(=O)N2CCN(c3ccccn3)CC2)c2ccccc2c1=O | -37.8

SMILES | hERG current change (%, negative = inhibition) at 10uM [%]
Cc1cc(C)n(-c2cccc(CN3CCC(CO)(Cc4ccccc4)CC3)c2)n1 | -58.1
CNC(=S)N1CCN(c2ccc([N+](=O)[O-])cc2)CC1 | -65.1
Cc1cc(-c2nnc(SCc3cccnc3)o2)no1 | -2.49
CCOC(=O)Cc1cnc(N)s1 | 4.64
O=C(c1ccncc1)N1N=C(C2CCCCC2)CC1(O)C(F)(F)F (stereo not shown) | 11.6
O=C(CNC(=O)c1ccco1)N=Nc1c(O)[nH]c2ccc([N+](=O)[O-])cc12 | 14.5
COc1ccc(/C=C/C(=O)O)cc1S(=O)(=O)NCc1ccco1 | 14
CC(=O)Nc1ccc(S(=O)(=O)NCCC(=O)NNC(=O)c2ccncc2)cc1 | 17.8
Cc1ccc(S(=O)(=O)NC(C)(C)CSc2ncccn2)cc1 | -4.42
COc1cc(C(=O)NCC(=O)N/N=C/c2ccccn2)cc(OC)c1OC | 17.4
CC(C)CN(Cc1c(O)ccc2c(=O)c(-c3ccccc3)coc12)CC(C)C.Cl | 17
CCOC(=O)c1c(NC(=O)C2C3CCC(O3)C2C(=O)O)sc(C)c1-c1ccc(C)cc1 (stereo not shown) | 2.26
O=C(c1ccc(NC2=NC3CS(=O)(=O)CC3S2)cc1)N1CCN(c2ccc([N+](=O)[O-])cc2)CC1 (stereo not shown) | -4.75
CCOC(=O)c1cc(S(=O)(=O)NCC2CCN(Cc3cccc(C)c3)CC2)cn1C | -7.77
O=C(Nc1ccc(N2CCOCC2)cc1)c1ccc(COc2ccccc2)cc1 | 17.3
O=C(O)C1=C(Nc2ccccc2)OCC1=O | 14
CCOc1cc(C(=O)NC(=S)Nc2nc(C)cc(C)n2)cc(OCC)c1OCC | 0.578
CC(=O)C1C(c2ccc(F)cc2)NC(=O)NC1(O)C(F)(F)F (stereo not shown) | -4.43
CCOc1ccc(S(=O)(=O)Nc2ccc(C(=O)N3CCCC3)cc2)cc1C(N)=O | 24.3
CSc1ccc(-c2sc(Nc3cccc4ccccc34)n[n+]2-c2ccccc2)cc1.[Cl-] | 10.2
COc1ccc(C(=O)Cn2nnc(-c3ccccc3F)n2)cc1 | -14.6
CC1CCCCN1C(=O)C(=O)c1cn(CC(=O)N2CCCCCC2)c2ccccc12 (stereo not shown) | 13
CCOc1ccc(Br)cc1S(=O)(=O)Nc1ccc(N2CCOCC2)cc1 | -8.78
CSc1sc(C)cc1/C=N/O | 6.46
CCN1C(=O)/C(=C\c2cccs2)C(C(=O)OC)=C1C | 5.41
Cc1ccc(N2C(=O)N(CC(=O)NC(N)=O)C(=O)C2C)cc1 (stereo not shown) | 27
COC(=O)C1=C(C(=O)OC)SC(=C2C(=S)C(C)(C)N(C(=O)CC(C)C)c3ccccc32)S1 | -7.16
